Data as given in PMC10668032.
Some of the results follow. At the low end of the ranking the order means little.

Each sequence was assayed against SIX1-Q177R homeodomain (UniProt Q15475) (assay: universal protein binding microarray). Settings: Universal all-10-mer PBM (8x60K, AMADID 030236), 300 nM GST-tagged protein, Alexa Fluor 488 anti-GST; buffer, salt, pH and temperature not stated; high values mean tight binding; most listed sequences are background and not binding sites; double strand, one strand shown.

| Sequence | binding signal [E-score] |
| --- | --- |
| CCCGGAAA | -0.0144 |
| TGGTATAA | 0.0843 |
| CGTCTGGC | -0.165 |
| GGGGAAGA | 0.071 |
| ATATGATA | 0.1 |
| GTACAAGA | -0.0849 |
| ACACTAGC | 0.364 |
| TCAAAGGA | -0.0664 |
| CCGCAGTA | -0.0122 |
| AGGGTTAA | 0.0927 |
| TGGGGGAA | -0.155 |
| ACGACATC | -0.0111 |
| ACAGATCA | 0.139 |
| ACCCGTCG | -0.000565 |
| AGCAAGAA | -0.134 |
| CTCGCCTC | -0.194 |
| ATATGAAA | -0.208 |
| AGCGCTCC | -0.222 |
| CGCGGATA | 0.129 |
| ACACCGAC | 0.475 |
| GCAGGTGA | -0.0626 |
| GACCTGCC | -0.008 |
| AGAAACTA | -0.336 |
| TGAAGGAA | -0.275 |
| ATTACTCA | -0.13 |

| Sequence | binding signal [E-score] |
| --- | --- |
| GACAGATC | -0.0909 |
| ATCCAGAC | -0.00904 |
| TCCCAAAA | -0.131 |
| GAGGCGGA | -0.124 |
| CTTGATCA | 0.000565 |
| GTAAATTA | -0.0598 |
| AATTGCTC | -0.255 |
| CTTATCTC | -0.176 |
| GCTGCCCC | -0.0359 |
| ATGACACA | 0.275 |
| GCGGTTGA | -0.0459 |
| AGCGAAGA | -0.208 |
| CCCCGAAA | 0.168 |
| CACGCTAC | 0.242 |
| GAAGCGCA | -0.155 |
| ACAGATAC | 0.0934 |
| ATTATGCC | -0.0188 |
| ACACATCC | 0.157 |
| CTAATTAG | -0.106 |
| CTAAGGCA | -0.0509 |
| GCAACCGA | -0.102 |
| ATGAGGCC | -0.272 |
| CGTTAACC | 0.0568 |
| GCGAAATA | -0.084 |
| GGCGGATA | 0.22 |

| Sequence | binding signal [E-score] |
| --- | --- |
| GGGGCGTA | 0.159 |
| TAGCTTGA | -0.204 |
| CCACTGCC | -0.215 |
| CCGAATGA | -0.0967 |
| GTAGGCGA | 0.0515 |
| AGTCTTTC | -0.258 |
| ACATCGGT | -0.0686 |
| CAGGGCTC | -0.0657 |
| AACAACGC | -0.108 |
| GATTTCAC | -0.0472 |
| ATGGTGTA | 0.479 |
| AAAAACTC | 0.0304 |
| GACAGTCA | -0.275 |
| CCGTTTAG | 0.0849 |
| CGCTGGAG | -0.00689 |
| AACTCAGA | 0.0526 |
| AACCGACT | -0.261 |
| CGGAACAC | 0.411 |
| CGGGTGTA | 0.476 |
| ACTCATTG | 0.0807 |
| GCTCATGA | -0.128 |
| GGTGAGTA | -0.0254 |
| CATTGGCC | -0.18 |
| ACGATGTG | 0.00877 |
| GTTTCAGA | -0.127 |

| Sequence | binding signal [E-score] |
| --- | --- |
| ACGCAAAG | -0.0777 |
| CGGTAAAC | 0.00786 |
| GAAGCGCC | -0.183 |
| ATTTTAGA | -0.132 |
| GGTAGCGA | -0.0335 |
| AAAGTTCT | -0.179 |
| CTTCCACC | -0.0181 |
| CGTACACA | 0.268 |
| GACCCCGC | 0.248 |
| ATCTTGTC | -0.056 |
| CCGACAGC | -0.0456 |
| AAATGTTA | -0.0727 |
| GCTGTGGA | 0.17 |
| TCCCGTCA | -0.0259 |
| CAAGTTCA | -0.112 |
| CGTTGGGA | 0.0501 |
| CATGTGAG | -0.0674 |
| ACGCCAGG | 0.124 |
| TCTCCCCA | 0.0316 |
| GTTTTTCA | 0.0311 |
| GAGGCACA | -0.0183 |
| GCGCTGTA | -0.0654 |
| ACGGTCAG | -0.159 |
| AGATCGCG | 0.0545 |
| ATTTAGAC | 0.0592 |

| Sequence | binding signal [E-score] |
| --- | --- |
| CATTCTCC | -0.23 |
| CGGCCGCC | -0.145 |
| AAGAGCCA | -0.0685 |
| ATTCCATG | 0.0159 |
| CGAACACC | 0.474 |
| GGTAGAAC | -0.058 |
| GCGACTAA | 0.0294 |
| AAGTGCAG | -0.262 |
| AGTGATAT | -0.0317 |
| CGAAGTGA | -0.00488 |
| ACACGTGG | 0.32 |
| AATAGCCT | -0.239 |
| CCTCCTAG | -0.0039 |
| AAGTCAGG | -0.124 |
| CCAAGCTC | -0.0476 |
| CTTGTCAC | 0.00724 |
| TATGAGCA | -0.061 |
| AGCTGCGA | -0.225 |
| ATATAATC | -0.102 |
| CTGACAGA | -0.288 |
| GGGGAGAC | 0.0335 |
| CCTATCCA | -0.138 |
| CTGGGCTA | -0.138 |
| AAAGAAGC | -0.16 |
| AGTAGCCA | -0.0864 |

| Sequence | binding signal [E-score] |
| --- | --- |
| CAACATGA | -0.14 |
| GACAACCC | 0.0928 |
| CAGTCTCA | -0.113 |
| ACGGCTAT | -0.12 |
| ATAAGGGA | -0.0139 |
| AACTTGCT | -0.196 |
| AGGGTAGC | -0.0219 |
| CTGTAGAC | -0.0949 |
| ATGGAGCC | -0.13 |
| CAATTCGA | -0.153 |
| CCCGCTTA | -0.0868 |
| ATTTACTG | -0.119 |
| GAGCTGTA | -0.32 |
| ACATATAC | -0.0603 |
| ATGAGATC | 0.0346 |
| CTGAATCC | -0.18 |
| ATCAGGAC | -0.193 |
| GTTGCTTA | -0.189 |
| CATCTTGC | -0.136 |
| ACGTCACG | 0.0116 |
| ACTTCAGG | -0.00269 |
| CCTTAAAG | -0.195 |
| CCCCCACG | 0.0253 |
| ACAGGCGA | -0.0581 |
| CAAGTAAA | -0.0231 |

| Sequence | binding signal [E-score] |
| --- | --- |
| GAGAATGA | -0.145 |
| ACCAGAGA | -0.103 |
| AAGTTGTC | 0.00368 |
| AACCAATG | -0.159 |
| GCTGAATA | -0.285 |
| AACTCAAT | -0.0505 |
| ATTGTTCG | -0.148 |
| AGAATGGC | -0.245 |
| AAATGGCA | -0.236 |
| TACTTGCA | -0.174 |
| ATGGTTGC | -0.161 |
| GGCATTAC | -0.153 |
| ATGTTGAG | -0.159 |
| AACAGACA | 0.115 |
| AACGTCTG | -0.103 |
| AAGTCGAT | -0.216 |
| GCAGTGTA | 0.415 |
| AGCTCCGA | -0.0939 |
| ATCCTATC | -0.0126 |
| CGTGAGAG | -0.233 |
| GTCACGTA | -0.112 |
| CGTTGCGA | -0.0818 |
| CTATTCAG | -0.056 |
| AGTGAAGC | -0.221 |
| AACAATAC | -0.123 |

| Sequence | binding signal [E-score] |
| --- | --- |
| GCAGACCC | 0.0323 |
| AAGACCAG | -0.0528 |
| GCCGACAC | 0.422 |
| ACGACCTG | -0.152 |
| ACGAGTCG | 0.138 |
| ATCGACGA | -0.174 |
| TATGCGCA | -0.118 |
| CACCTGAC | 0.279 |
| CCAACCCA | 0.129 |
| ACAACTTC | -0.0929 |
| CCCTTGGC | -0.0562 |
| AAACTTAT | -0.0769 |
| ACAGTACT | -0.0128 |
| AGCGGCCA | -0.271 |
| AGGGTAAT | 0.089 |
| ATCTGCCA | -0.172 |
| GGTTTCAC | 0.139 |
| ACAGGCTC | 0.0419 |
| ACGCAAGG | -0.0365 |
| AACCAAGT | 0.114 |
| GAAATAAC | -0.0686 |
| GATTGGAC | -0.0717 |
| CTACCGAC | -0.102 |
| GAACGTCA | -0.0258 |
| ACACAGGC | 0.0998 |

| Sequence | binding signal [E-score] |
| --- | --- |
| TTGAAAAA | -0.083 |
| AGAATAAA | -0.0206 |
| GCTTCGGA | -0.0236 |
| GAACGCCA | 0.0153 |
| CAAGGCAA | -0.249 |
| CAGATCTC | -0.0474 |
| ATTACGAA | -0.145 |
| GCTAAGCC | -0.225 |
| ACATTTCG | -0.227 |
| TGGAAGAA | -0.156 |
| CTAGGAGA | 0.0316 |
| CATTGTAA | 0.0542 |
| CACATAGG | 0.0681 |
| TACCATGA | -0.143 |
| CAACGAAC | -0.156 |
| CCGCGAAG | -0.0261 |
| CCTGTGAC | 0.194 |
| CCCACTAC | 0.124 |
| TGCGAGAA | -0.122 |
